Measured values taken from PubChem BioAssay AID1460 (National Center for Advancing Translational Sciences (NCATS), 2008).
Hit rate of the full screen: of about 270,000 compounds, about 5,800 (2.1%) were called active. The shares of active, inactive and inconclusive entries below differ from those in the screen. Calls come from the whole dose curve; as a rule, active = well fitted inhibition curve with a large enough effect; inconclusive = small, poorly fitted or top-dose-only effect; inactive = flat fitted curve, though single readings scatter. Potencies beside an inconclusive call are fits to weak or partial responses and may not hold up. More than one record can exist for a structure, and the calls need not agree.

These compounds were tested against Microtubule-associated protein tau (Homo sapiens) (UniProt P10636) (assay: qHTS for Inhibitors of Tau Fibril Formation, Thioflavin T Binding). Details: recombinant tau K18 P301L, heparin-induced fibrillization, ThT fluorescence; series mostly up to 57.4 µM.
Method in brief: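 Fibril formation assay: tau K18 P301L at 15 uM with trace Alexa 594 label, heparin inducer 20 uM, pH 7 sodium acetate buffer, 37 C for 6 hr; endpoint ThT signal.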
Note: nearly all actives have a fitted effect of over 55% in size.
Potency is the fitted concentration of half-maximal effect; tags give direction and shape of the fitted curve.

UniProt P10636, sequence (P10636 whole entry, looked up): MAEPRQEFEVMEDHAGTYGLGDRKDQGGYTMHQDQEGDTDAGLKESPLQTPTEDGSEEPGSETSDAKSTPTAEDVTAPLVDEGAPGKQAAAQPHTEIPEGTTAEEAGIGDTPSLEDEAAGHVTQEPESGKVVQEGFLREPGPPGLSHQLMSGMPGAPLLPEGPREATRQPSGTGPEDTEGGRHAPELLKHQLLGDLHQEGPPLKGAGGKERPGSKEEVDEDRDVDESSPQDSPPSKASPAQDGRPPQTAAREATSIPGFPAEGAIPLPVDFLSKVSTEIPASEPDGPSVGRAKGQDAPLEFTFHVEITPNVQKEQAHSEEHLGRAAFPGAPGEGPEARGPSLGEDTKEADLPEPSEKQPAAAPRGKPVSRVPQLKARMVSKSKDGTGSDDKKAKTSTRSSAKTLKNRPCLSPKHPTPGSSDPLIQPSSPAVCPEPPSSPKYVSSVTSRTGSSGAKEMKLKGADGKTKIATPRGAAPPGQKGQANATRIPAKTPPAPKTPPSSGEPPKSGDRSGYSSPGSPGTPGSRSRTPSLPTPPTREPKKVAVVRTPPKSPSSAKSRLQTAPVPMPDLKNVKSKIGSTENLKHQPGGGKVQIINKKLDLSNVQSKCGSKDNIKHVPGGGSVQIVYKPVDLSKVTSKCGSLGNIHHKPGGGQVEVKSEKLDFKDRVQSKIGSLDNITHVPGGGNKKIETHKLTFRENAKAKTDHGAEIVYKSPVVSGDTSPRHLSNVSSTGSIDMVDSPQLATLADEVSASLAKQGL

Compound	Potency
CC(=O)Nc1ccc(-c2nnc(SCC(=O)c3ccc([N+](=O)[O-])cc3)o2)cc1	inconclusive: 7.94 µM [inhibitor, partial curve]
Cc1ccc2ccc3cc(C(=O)N4CCN(c5ccccc5)CC4)nc3c2[nH]1	inconclusive: 12.6 µM [inhibitor, partial curve]
C/C(CC(=O)Nc1ccccn1)=N\NC(=O)C(=O)Nc1cccc(C)c1	inconclusive: 15.8 µM [inhibitor, partial curve]
CC(C)N(C(=O)CSc1nc2ccccc2n1-c1ccccc1)C(C)C	inconclusive: 28.2 µM [inhibitor, partial curve]
COc1ccc2nc3oc(C(=O)N4CCN(c5cccc(Cl)c5)CC4)cc3cc2c1	inconclusive: 11.2 µM [inhibitor, partial curve]
CC1CCc2cc(F)ccc2N1C(=O)CSc1nnc(-c2cccs2)n1C (stereo not drawn)	inconclusive: 15.8 µM [inhibitor, partial curve]
CC(=O)C1=NN(c2ccccc2)C(c2cccs2)N1c1ccccc1 (stereo not drawn)	inconclusive: 10 µM [inhibitor, partial curve]
Cc1cc(Cl)ccc1NC(=O)C1CCN(c2nnc(-n3c(C)ccc3C)s2)CC1	inconclusive: 20 µM [inhibitor, partial curve]
COc1ccc(-c2cc(C(F)(F)F)n3nc(C(=O)NCC45CC6CC(CC(C6)C4)C5)cc3n2)cc1OC	inconclusive: 7.94 µM [inhibitor, partial curve, poor fit]
COc1cccc(CC(=O)n2nc(N)c3cc4ccc(OC)cc4nc32)c1	inactive
Cc1cccc(Cn2c(C)c(CNC3CCCCC3)c(C(=O)O)c2C)c1	inactive
Cc1cc(C)n2[nH]c(=O)c(N=Nc3ccccc3)c2n1	inconclusive: 28.2 µM [inhibitor, single point]
COc1cccc(-c2cc(C(F)(F)F)nc(-n3cccn3)n2)c1	inconclusive: 17.8 µM [inhibitor, single point]
CC1CCN(S(=O)(=O)c2ccc3c(c2)N(CC(=O)O)C(=O)CO3)CC1	inactive
Cc1cccc(C(=O)Nc2nnc(SCC(=O)Nc3ccc4c(c3)oc3ccccc34)s2)c1	inconclusive: 10 µM [inhibitor, partial curve]
COc1cc(N2CCCC2)c(OC)cc1/C=C(/C#N)c1cccc(F)c1	inconclusive: 11.2 µM [inhibitor, partial curve]
COc1ccc2c(c1)CCc1cc(C(=O)N3CCN(c4ccc(N5CCOCC5)nn4)CC3)sc1-2	active: 8.91 µM
CC(=O)CC(=O)Nc1ncc(C(F)(F)F)cc1Cl	inactive
Cc1cccc(OCC(=O)Nc2nnc(-c3ccco3)s2)c1	inconclusive: 1.26 µM [inhibitor, full curve]
CCOc1cc(N2CCOCC2)c(OCC)cc1NC(=O)Cc1ccccc1OC	inconclusive: 39.8 µM [inhibitor, single point]
Cc1ccc(C(=O)NNC2CC(=O)N(c3ccc4c(c3)OCCO4)C2=O)cc1 (stereo not drawn)	inconclusive: 12.6 µM [inhibitor, partial curve]
CN(C)C(=S)N=Nc1[nH]c2ccccc2c1O	active: 15.8 µM
CCOc1ccccc1NC(=O)Cc1coc2cc(C)ccc12	inconclusive: 39.8 µM [inhibitor, partial curve]

Compound	Potency
CN(C)/C=C1\NC(=S)N(c2ccc(Cl)cc2)C1=O	inconclusive: 28.2 µM [inhibitor, single point]
Cc1ccc2nc(/C(C#N)=C\c3ccc(Oc4ccc(C(F)(F)F)cc4[N+](=O)[O-])cc3)[nH]c2c1	inconclusive: 3.16 µM [inhibitor, full curve, poor fit]
O=C1C(Nc2ccccc2)=CC(=O)c2ncccc21	active: 14.1 µM
COc1cccc(OC)c1OCCN(C)C	inactive
CCOC(=O)c1c(C)[nH]c(C(=O)OCC(=O)c2c(N)n(C)c(=O)n(C)c2=O)c1C	inactive
COc1cccc(C(Nc2ccccn2)c2oc(CO)cc(=O)c2O)c1 (stereo not drawn)	inconclusive: 11.2 µM [inhibitor, partial curve]
COc1ccc(NC(=O)CSc2nnc(C3CC3)n2N)cc1	inactive
CSc1ccc(S(=O)(=O)Nc2ccc3c4c(cccc24)CC3)cc1	inactive
CCOc1ccc2nc3sc(C(=O)N4CCN(C)CC4)c(N)c3cc2c1	active: 12.6 µM
CC(C)NS(=O)(=O)c1ccc(CCC(=O)N2CCC(C(N)=O)CC2)cc1	inconclusive: 14.1 µM [inhibitor, partial curve]
CCN(CC)S(=O)(=O)c1ccc(N2CCOCC2)c(NC(=O)Cc2ccccc2)c1	inactive
CCCCSCCCNC(=O)C1CCN(Cc2nc(-c3cccc(Br)c3)oc2C)CC1	inconclusive: 39.8 µM [inhibitor, single point]
COc1ccccc1CNC(=O)c1ccc(N2CCCC2)c(NC(=O)NCc2ccc(F)cc2)c1	inactive
O=C(NC1=C(Nc2ccc(F)cc2)C(=O)c2ccccc2C1=O)c1ccc(Cl)cc1	inconclusive: 2.51 µM [inhibitor, full curve]
CCN1CCN(c2nc3ccccn3c(=O)c2/C=C(\C#N)S(=O)(=O)c2ccccc2)CC1	inactive
CCCC(O)(CCN1CCCCC1)c1ccc(OCC)cc1 (stereo not drawn)	inactive
COc1ccc(OC)c(S(=O)(=O)N2CCN(c3c(C)cccc3C)CC2)c1	inconclusive: 28.2 µM [inhibitor, single point]
Oc1ccc(C(=S)N2CCN(c3cccc(Cl)c3)CC2)cc1	inconclusive: 31.6 µM [inhibitor, partial curve, poor fit]
Oc1c(N=NC(=S)Nc2ccccc2F)c2ccccc2n1Cc1ccccc1	inconclusive: 2.24 µM [inhibitor, full curve]
Cc1ccc(N2CCN(S(=O)(=O)c3nnc(NC(=O)c4ccc(C(C)C)cc4)s3)CC2)cc1	inconclusive: 11.2 µM [inhibitor, partial curve]
CCOC(=O)c1cccc(NC(=O)c2cncc(Br)c2)c1	inactive
O=C1CCC(C(=O)NCCN2C(=O)S/C(=C\c3cccnc3)C2=O)=NN1	inconclusive: 12.6 µM [inhibitor, partial curve]
CN1CCN(c2cc(N3CCc4ccccc4C3)c(F)cc2[N+](=O)[O-])CC1	active: 12.6 µM

Compound	Potency
CCOc1ccc(Nc2nc(C)c(NC(=O)c3cccc(OC)c3)c(Nc3ccc(OCC)cc3)n2)cc1	inconclusive: 28.2 µM [inhibitor, partial curve]
CCOC(=O)/C(C#N)=C\c1cccnc1	inactive
CC1(C)CC(=O)C(/C=N/c2ccccn2)=C(O)C1	inactive
Cn1c(SCC(=O)N2CCN(c3ccccc3)CC2)nnc1-c1c[nH]c2ccccc12	inconclusive: 22.4 µM [inhibitor, partial curve, poor fit]
O=C(CCCCn1c(=S)[nH]c2ccsc2c1=O)NCc1ccc2c(c1)OCO2	inactive
COc1ccc(S(=O)(=O)n2nc(OC(=O)c3ccc(C)cc3)cc2N)cc1	inconclusive: 22.4 µM [inhibitor, partial curve]
CCOC(=O)C1=C(C)N=C2c3ccccc3C(=O)C2C1c1ccc(Cl)cc1 (stereo not drawn)	inconclusive: 7.94 µM [inhibitor, full curve]
CC(C)=CCC[C@](C)(O[C@@H]1O[C@H](CO)[C@@H](O)[C@H](O)[C@H]1O)[C@H]1CC[C@]2(C)[C@@H]1[C@H](O)C[C@@H]1[C@@]3(C)CC[C@H](O[C@@H]4O[C@H](CO)[C@@H](O)[C@H](O)[C@H]4O[C@@H]4O[C@H](CO)[C@@H](O)[C@H](O)[C@H]4O)C(C)(C)[C@@H]3[C@@H](O)C[C@]12C	inactive
O=C1C(=O)N(CCN2CCOCC2)C(c2ccccn2)/C1=C(/O)c1ccccc1 (stereo not drawn)	inconclusive: 17.8 µM [inhibitor, partial curve]
COc1ccc(/C=C(/C#N)C(=O)Nc2cccc(C)c2C)cc1C(=O)O	inconclusive: 17.8 µM [inhibitor, partial curve]
CCC(=O)Nc1ccc(N2CCC(C)CC2)cc1	inactive
Cc1ccc(NC(=O)Nc2sc(=S)n(C)c2C)cc1	inconclusive: 10 µM [inhibitor, partial curve]
Clc1ccc(-c2csc(Nc3ccccc3)[n+]2Cc2ccco2)c(Cl)c1	inconclusive: 25.1 µM [inhibitor, partial curve]
O=C(Nc1cccc2ncccc12)c1ccc(Br)c([N+](=O)[O-])c1	inconclusive: 20 µM [inhibitor, partial curve]
Cn1c(SCC(=O)Nc2ccc3cn[nH]c3c2)nnc1-c1cnccn1	inconclusive: 39.8 µM [inhibitor, single point]
COC(=O)CCCC1=CC2=CC(=O)C(C)(OC(=O)c3cccs3)C(=O)C2=CN1c1cccc(C#N)c1 (stereo not drawn)	active: 31.6 µM
Cc1cc2nc(-c3cccc(NC(=O)COc4ccc(Cl)c(C)c4)c3)oc2cc1C	inconclusive: 10 µM [inhibitor, partial curve, poor fit]
Cc1cccc(N(C)S(=O)(=O)c2c(C(=O)N3CCCCCC3)c(C)n(C)c2C)c1	inactive
NC(=S)NNc1cccc2cccnc12	active: 3.55 µM
CCOc1ccc2nc(NC(=O)CSc3nc(SC)ns3)sc2c1	inconclusive: 0.562 µM [inhibitor, full curve]
COc1ccc(NC(=O)c2c(NCc3cccc(F)c3)sc3c2CCCC3)c(OC)c1	inconclusive: 12.6 µM [inhibitor, partial curve]
COc1cc(/C=N/NC(=O)c2ccc(Cl)c(S(N)(=O)=O)c2)ccc1OCC(N)=O	inconclusive: 12.6 µM [inhibitor, partial curve, poor fit]
